# Hit rate of the full screen: of about 310,000 compounds, about 18,000 (5.8%) were called active. Inconclusive results, whose numbers are uncertain, are shown with a selection of clear calls. Calls come from the whole dose curve; as a rule, active = well fitted inhibition curve with a large enough effect; inconclusive = small, poorly fitted or top-dose-only effect, or another doubt; inactive = no such curve, though single readings can be large or run the other way. Potencies of inconclusive entries are left out as doubtful fits.
# Assay: Primary qHTS for delayed death inhibitors of the malarial parasite plastid, 48 hour incubation
# Conditions: P. falciparum luciferase growth in erythrocytes; series mostly up to 28.7 µM
# Method in brief: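 Cell-based growth assay: transgenic P. falciparum expressing firefly luciferase, cultured in red cells within RPMI 1640 containing 0.5% w/v Albumax, 24 mM bicarbonate and gentamycin. A drop in luciferase activity indicates inhibition.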
# % is set by controls: 0 for no effect and ±100 for the full control effect; potency is the fitted concentration of half-maximal effect; tags give direction and shape of the fitted curve.
Structure (SMILES),Potency,"activity change, negative = inhibition"
O=C(COC(=O)c1c(Cl)cccc1Cl)Nc1ccccc1Br,"inconclusive [inhibitor, single point]",–
Cc1ccc(NC(=O)C2CCCO2)cc1[N+](=O)[O-] (centres undefined),inactive,–
Nc1ccccc1SCC(=O)Nc1nccs1,inactive,–
CCCS(=O)(=O)c1cscc1NC(=O)c1c(-c2c(F)cccc2Cl)noc1C,"inconclusive [inhibitor, single point]",–
Cc1ccccc1C(=O)NC(=S)NCC(=O)c1ccccc1,"inconclusive [inhibitor, single point]",–
Cc1nc(NC(C)c2ccccc2)c2oc3ccccc3c2n1 (centres undefined),"inconclusive [inhibitor, single point]",–
O=c1[nH]c(=O)n(CCC2=CCCCC2)c(O)c1C=Nc1cccc(F)c1,inactive,–
COc1ccccc1-n1c(SCC(=O)O)nc2c(sc(=S)n2-c2ccccc2C)c1=O,inactive,–
CCOC(=O)c1ccc(COC(=O)c2ccc3c(c2)-c2ccccc2C3=O)cc1,inactive,–
O=C(/C=C/c1ccccc1)N(Cc1cccc(Cl)c1)C1CCS(=O)(=O)C1 (centres undefined),active: 6.57 µM,–
Cc1cc(C)cc(NC(=O)CSc2nnc(CNC(=O)c3ccco3)n2C)c1,"inconclusive [inhibitor, single point]",–
Cc1ccc(S(=O)(=O)c2c(C)cc(C)nc2Oc2cccc(C(F)(F)F)c2)cc1,"inconclusive [inhibitor, partial curve, poor fit]",–
COc1ccc(C(C[N+](=O)[O-])c2c(C)cc3ccccn23)cc1 (centres undefined),active: 10.4 µM,–
Cc1nc2c(C)c(C)c(C)c(C)c2nc1C,"inconclusive [inhibitor, single point]",–
CSC1=NCCN1S(=O)(=O)c1ccc(C)cc1,inactive,–
CCOC(=O)[C@@H]1[C@H]2COc3cc(OC)ccc3[C@@H]2N2C(=O)N(c3ccc(C(F)(F)F)cc3)C(=O)[C@@]12C,"inconclusive [inhibitor, partial curve, poor fit]",–
Cc1cccc(NC(=O)CCC(=O)N/N=C/c2cccnc2)c1,"inconclusive [inhibitor, partial curve, poor fit]",–
CCOC(=O)CN(c1ccccn1)S(=O)(=O)c1ccccc1,inactive,–
Cc1ccc(C(=O)O/N=C(\N)c2ccc(C(F)(F)F)cn2)cc1,–,inactive: -34.5% [at 0.00184 µM]
CCC(C(=O)NC1CCCC1)N(C(=O)Cn1nnc(-c2cccs2)n1)c1cnc2ccccc2c1 (centres undefined),active: 11.7 µM,–
N#Cc1ccc(COC(=O)c2cnc(Cl)c(Cl)c2)cc1,inactive,–
O=C(NCc1ccco1)c1cc(S(=O)(=O)N2CCCC2)ccc1Cl,inactive,–
COC(=O)C1=C(C)N(Cc2ccccc2)C(=NCc2cc(OC)c(OC)c(OC)c2)N[C@H]1CCc1ccccc1,active: 13.1 µM,–
Cc1cccnc1NC(=O)C1c2ccccc2Oc2ccccc21,"inconclusive [inhibitor, full curve, poor fit]",–
Cn1c(SCC(=O)OC2CCCCC2)nnc1-c1ccc(S(=O)(=O)N2CCCC2)cc1,active: 2.62 µM,–

Structure (SMILES),Potency,"activity change, negative = inhibition"
CCOC(=O)C1=C(CC)Nc2ccccc2N=C1NC(=O)c1cccc(S(=O)(=O)N2CCOCC2)c1,"inconclusive [inhibitor, single point]",–
COc1ccc(CC(=O)Nc2ccc(S(=O)(=O)N(C)C3CCN(C)CC3)cc2)cc1,"inconclusive [inhibitor, single point]",–
CCC1CCC(N2CCN(c3ccc([N+](=O)[O-])cc3)CC2)CC1 (centres undefined),"inconclusive [inhibitor, single point]",–
CCOC(=O)C(=CNc1ccc2c(c1)CCN2C(C)=O)C(=O)OCC,"inconclusive [inhibitor, single point]",–
Cc1nn(Cc2ccccc2)c(=O)n1N(C)c1ncc(C(F)(F)F)cc1Cl,"inconclusive [inhibitor, partial curve]",–
Cc1cc(C)nc(N/N=C/c2ccc(N3CCOCC3)cc2)n1,inactive,–
O=[N+]([O-])c1cccc(S(=O)(=O)Nc2ccc(-c3ccc(N4CCCC4)nn3)cc2)c1,inactive,–
OCc1ccccc1,active: 5.36 µM,–
COc1ccc(S(=O)(=O)N(C)C)cc1NCC(=O)Nc1ccc(Br)c(C)c1,active: 10.4 µM,–
COc1cc(/C=C(\C#N)C(=O)NC(C)C)ccc1OCc1ccc(C(=O)O)cc1,inactive,–
Cc1cc(OCC(=O)N(C)c2ccccc2)cc2c1C(=O)CC(C)(C)O2,"inconclusive [inhibitor, full curve, poor fit]",–
CCN(CC)S(=O)(=O)c1ccc2nc(SC)sc2c1,"inconclusive [inhibitor, single point]",–
CCOC(=O)c1ccc(NC(=O)Nc2ccc(OC)c(OC)c2)cc1,"inconclusive [inhibitor, single point]",–
COc1ccc(C(=O)/C=C/C(=O)N(Cc2ccccc2)C(C(=O)NC2CCCCC2)c2ccncc2)c(O)c1 (centres undefined),"inconclusive [inhibitor, partial curve, poor fit]",–
O=C(NC1CCCCC1)c1ccc(CS(=O)Cc2ccc(Cl)cc2)o1 (centres undefined),inactive,–
CN1CCN(c2ccc(CNS(=O)(=O)Cc3cccc(C(F)(F)F)c3)cc2)CC1,inactive,–
CC(O)CNCCNCc1cccs1 (centres undefined),–,inactive: 6.41% [at 5.75 µM]
COc1ccc(C(=O)CSc2nnc(CNC(=O)c3ccco3)n2C)cc1,inactive,–
CC(C)OC(=O)CC(=O)CSc1nc(-c2ccc(F)cc2)cc(-c2ccccc2)c1C#N,"inconclusive [inhibitor, single point]",–
COc1ccc(-c2nn(-c3ccccc3)cc2C(=O)NC(=S)N2CCOCC2)cc1OC,inactive,–
CCCN1CCc2c(sc3nc(SC)n(-c4ccccc4)c(=O)c23)C1,active: 0.928 µM,–
CCCCN(CC)CCNC(=O)c1cc2c(=O)[nH]c3ccccc3c2s1,"inconclusive [inhibitor, partial curve, poor fit]",–
O=C(CCl)N1CCN(S(=O)(=O)c2ccc3c(c2)CCC3)CC1,active: 2.33 µM,–
Cc1ccc(C2CC(C(F)(F)F)n3ncc(C(=O)NCc4ccco4)c3N2)cc1 (centres undefined),inactive,–
COC(=O)c1ccc(N2CCCCC2)c(NC(=O)c2ccco2)c1,"inconclusive [inhibitor, single point]",–

Structure (SMILES),Potency,"activity change, negative = inhibition"
CN(CC(=O)Nc1ccc(Cl)c(Cl)c1)C1CCCCC1,inactive,–
COc1cccc(C2C=C(Nc3ccccc3)C(=O)N2c2ccccc2)c1 (centres undefined),"inconclusive [inhibitor, single point]",–
CC(C)CNC(=O)c1cc(S(=O)(=O)N2CCOCC2)ccc1N1CCCC1,"inconclusive [inhibitor, partial curve]",–
C=CCNc1oc(-c2ccc(OCC)cc2)nc1C#N,"inconclusive [inhibitor, single point]",–
CC(C)Oc1ccc(/C=N/NC(=O)C2CCCN2S(=O)(=O)c2ccc(Cl)cc2)cc1 (centres undefined),"inconclusive [inhibitor, single point]",–
O=C(NN1C(=O)/C(=C/c2ccc(O)c(O)c2)SC1=S)c1ccccc1,inactive,–
CNC(=O)CS(=O)(=O)CC(=O)Nc1cc(OC(C)C)c(Cl)cc1Cl,inactive,–
O=C(Nc1ccc(F)cc1)c1cnc(-c2ccccc2)nc1-c1ccccc1,"inconclusive [inhibitor, single point]",–
O=C(CCn1c(=S)[nH]c2cc3c(cc2c1=O)OCO3)NCc1ccc(Cl)cc1,"inconclusive [inhibitor, single point]",–
O=[N+]([O-])c1cc(S(=O)(=O)c2ccc(N3CCCCC3)c([N+](=O)[O-])c2)ccc1N1CCCCC1,inactive,–
COc1ccc(N2C(=O)C(CN3CCN(C)CC3)C2c2ccccc2)cc1 (centres undefined),inactive,–
COc1cccc(NC(=O)CN(C)C(=O)COc2cc(C)ccc2Cl)c1,"inconclusive [inhibitor, partial curve, poor fit]",–
O=c1c2ccccc2[nH]c(=S)n1-c1ccc2c(c1)OCO2,active: 11.7 µM,–
CN(c1ccc(C(=O)Nc2ccccc2Sc2ccccc2)cc1)S(C)(=O)=O,"inconclusive [inhibitor, single point]",–
C=C(C)CSc1nnc(-c2ccc(OC)cc2)n1N,inactive,–
CC1=CC(C)(C)[N+](C)=CN1c1ccccc1,"inconclusive [inhibitor, partial curve]",–
COc1cc(C(=O)NCCC2=CCCCC2)cc(OC)c1OC,"inconclusive [inhibitor, full curve, poor fit]",–
Cc1cccc(CCN2C(N(C)C)=NC[C@@H]2C)c1,inactive,–
CCOC(=O)/C(=N\Nc1ccc(C(C)=O)cc1)c1csc(Nc2ccccc2)n1,inactive,–
COc1ccc(-c2c(-c3ccc(OCC(=O)NN)cc3O)n[nH]c2C(F)(F)F)cc1,active: 9.28 µM,–
Cc1cccc(NC(=S)N2CCN(c3ccccn3)CC2)c1,inactive,–
Cc1ccc(-n2nnnc2SCC(=O)N2c3ccccc3NC(=O)C2(C)C)cc1,"inconclusive [inhibitor, single point]",–
Cc1cccc(C)c1NC(=S)N(CCN1CCCCCC1)Cc1ccco1,"inconclusive [inhibitor, partial curve, poor fit]",–
O=C(Cc1cccs1)N1CCC(c2nc3c(nnn3Cc3ccccc3Cl)c(=O)[nH]2)CC1,"inconclusive [inhibitor, single point]",–

# Reference: PubChem BioAssay AID504832 (National Center for Advancing Translational Sciences (NCATS), 2011)
